Experimental data: the supplement of paper PMC6531468
The other results are listed elsewhere or left out. Values come from read counts of a selection and are noisy. Scores sum up all selected molecules that hold the word; the word was not tested alone.

system: IMP3 KH1-2; experiment: 6-mer SELEX enrichment z-score vs GST control; IMP3 is the RNA-binding protein IGF2BP3; higher = more enriched by binding; conditions: construct: KH1-2 (164-376); SELEX round: R4
Description: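 SELEX-seq with GST-tagged IMP3 KH1-2 (Pro164-Phe376) and an N40 RNA pool, round 4 (stringent 300/600 mM KCl washes). 6-mer z-score of sequence-tag enrichment normalised to the corresponding GST SELEX round; RNA k-mers written as DNA (T for U).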

IMP3 KH1-2, sequence (chain, as listed by the source): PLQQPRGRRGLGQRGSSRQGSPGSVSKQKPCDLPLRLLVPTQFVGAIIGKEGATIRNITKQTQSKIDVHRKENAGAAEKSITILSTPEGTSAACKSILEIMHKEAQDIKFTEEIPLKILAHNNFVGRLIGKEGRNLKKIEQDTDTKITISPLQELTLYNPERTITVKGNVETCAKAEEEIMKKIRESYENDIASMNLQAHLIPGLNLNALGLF

Row | Sequence | 6-mer SELEX enrichment z-score
1 | TCAAAG | -0.801
2 | AGAAGC | -0.505
3 | AATTTC | 1.16
4 | GAGATG | 0.067
5 | GAAAAG | -0.599
6 | GTGCCC | -1.36
7 | GCGTAC | -2.17
8 | GGAATT | 0.367
9 | GCGCAC | 0.178
10 | ATAATT | 1.82
11 | CTATCT | 0.159
12 | CGTGTC | -0.639
13 | CACGGT | -0.078
14 | AGTGGG | 0.578
15 | TTTGCG | -0.321
16 | GCATGT | 0.245
17 | CGGAAT | -0.175
18 | AAGAGC | -3.07
19 | TACTTC | 0.468
20 | CCAGCA | -0.137

Row | Sequence | 6-mer SELEX enrichment z-score
21 | CAGCGC | -1.03
22 | CGCCGC | 0.431
23 | CACAAT | 2.21
24 | AGCCAA | -1.3
25 | TACCCA | -1.72
26 | CGTGCG | -1.15
27 | ATTTTC | 1.38
28 | TAGTTG | -0.184
29 | TGTTAA | 0.034
30 | CCAAGG | -0.854
31 | TGAGCA | -1.13
32 | TTTCCA | 0.87
33 | CAATTA | 1.38
34 | GCCTGA | -0.828
35 | AGCAAG | -0.179
36 | ACACAA | 2.77
37 | GTCTGC | 0.022
38 | AGCAGA | -0.145
39 | CGGTCC | -0.024
40 | CATCGA | -0.942
